The target in this test is STAT3 (unphosphorylated, wild-type), fluorophore fusion (UniProt P40763). The experiment in a line: co-localization assay (relocalisation of a test protein by a compartment-targeted bait, fluorescence microscopy); HeLa cells co-expressing bait (STAT-NES or STAT-NLS, or wild-type STAT2 with its own export activity; green) and test protein without heterologous signal (red); no cytokine; fixed 20 h after transfection; Pearson correlation coefficient rP in cells with equimolar to 4-fold excess of bait.

Bounds are passed on as bounds.

In turn, “STAT3 (unphosphorylated, wild-type), fluorophore fusion (a stretch of the chain, sequence left out) (natural protein; other documents disagree on this pair)” yielded a Pearson correlation coefficient rP (co-localization) of more than 0.94.

The record behind these values is publication PMC10200994.
